From PubChem BioAssay AID504637 (National Center for Advancing Translational Sciences (NCATS), 2011)
The whole screen tested about 1,100 compounds, of which about 430 (39%) were called active. The set was probably picked from earlier hits. The shares of active, inactive and inconclusive entries below differ from those in the screen. The call rests on the fitted dose curve; in most records, active means well fitted inhibition curve with a large enough effect; inconclusive means small, poorly fitted or top-dose-only effect, or effect the other way; inactive means flat fitted curve, though single readings scatter. Potencies of inconclusive entries are doubtful fits and often do not repeat.

molecular target: ATP-dependent 6-phosphofructokinase (Trypanosoma brucei brucei) (UniProt O15648); assay: Inhibitors of T. brucei phosphofructokinase: Hit Validation; further: nearly all actives have a fitted effect of over 60% in size;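 on activity change, negative = inhibition: plate controls were full PFK enzyme control for no effect and no enzyme control for full effect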; conditions: purified T. brucei PFK, ADP-Glo luminescence, 45 min; series mostly up to 57.5 µM; activity change, negative = inhibition: at the top concentration
Potency means the concentration at half of the fitted maximal effect; tags describe the fitted curve by direction and shape.

Sequence of UniProt O15648 (O15648 whole entry, looked up): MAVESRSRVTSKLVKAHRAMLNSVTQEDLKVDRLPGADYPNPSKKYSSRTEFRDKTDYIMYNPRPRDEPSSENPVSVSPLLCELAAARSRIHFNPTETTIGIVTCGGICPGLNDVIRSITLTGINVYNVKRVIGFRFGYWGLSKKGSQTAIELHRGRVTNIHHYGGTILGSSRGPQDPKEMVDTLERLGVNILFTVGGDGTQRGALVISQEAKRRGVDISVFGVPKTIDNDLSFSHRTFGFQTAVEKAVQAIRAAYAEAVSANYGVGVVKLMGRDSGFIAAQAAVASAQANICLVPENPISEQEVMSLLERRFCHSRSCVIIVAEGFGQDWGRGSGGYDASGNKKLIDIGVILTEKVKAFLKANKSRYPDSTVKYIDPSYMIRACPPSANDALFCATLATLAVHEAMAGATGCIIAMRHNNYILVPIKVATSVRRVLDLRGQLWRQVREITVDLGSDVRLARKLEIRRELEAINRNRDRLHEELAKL

Structure (SMILES) | Potency | activity change, negative = inhibition
O=C(NNC(=O)c1ccccc1O)c1cc2ccccc2o1 | inconclusive: 21.3 µM [activator, partial curve] | –
O=C(O)CC1S/C(=N/N=C/C=C/c2ccccc2[N+](=O)[O-])NC1=O (stereo not given) | inconclusive: 4.26 µM [activator, full curve] | –
CCNS(=O)(=O)c1ccc(NC(=O)Cn2cc([N+](=O)[O-])cn2)cc1 | inconclusive: 33.8 µM [inhibitor, single point] | –
CN(c1ccccc1)c1ccc(/C=C/[N+](=O)[O-])cc1 | active: 23.9 µM | –
S=C1CCSc2ccc(Cl)cc2N1 | inconclusive: 16.9 µM [inhibitor, partial curve] | –
CC(NC(=O)C1CCN(C(=O)c2cccs2)CC1)c1ccc(S(N)(=O)=O)cc1 (stereo not given) | inconclusive: 26.9 µM [activator, single point] | –
COc1cc(OC)cc(C(=O)OCC(=O)NCc2ccco2)c1 | inconclusive: 37.9 µM [inhibitor, single point] | –
Cc1ccc(NS(=O)(=O)c2cc(NC(=O)c3ccc4c(c3)NC(=O)CS4)ccc2C)c(C)c1 | active: 23.9 µM | –
NS(=O)(=O)c1ccc(NC(=S)NC2CCCC2)cc1 | – | inactive: -0.0531%
N#Cc1c(F)cccc1NCc1cccnc1 | – | inactive: -9.12%
O=C(COC(=O)c1ccccc1O)Nc1cccc(S(=O)(=O)NC2=NCCCCC2)c1 | inconclusive: 33.8 µM [inhibitor, single point] | –
Cc1cc(C)cc(NC(=S)Nc2ccc(Cl)c(Cl)c2)c1 | inconclusive: 26.9 µM [inhibitor, partial curve] | –
Nc1nc(N2CCN(c3cccc(Cl)c3)CC2)n[nH]1 | – | inactive: -24.7%
Cc1ccc(-c2nn(-c3ccccc3)cc2/C=C2\SC(=S)N(CCCCCC(=O)O)C2=O)o1 | active: 30.1 µM | –
O=C(COc1ccc(Cl)cc1)OCC(=O)c1ccc[nH]1 | inconclusive: 21.3 µM [inhibitor, single point] | –
O=C1C=C(NCc2ccc(Cl)c(Cl)c2)CC1 | active: 6.01 µM | –
O=C(CSc1nc(-c2ccc(F)cc2)nc2c1Cc1ccccc1O2)Nc1cccc(C(=O)O)c1 | inconclusive: 3.38 µM [inhibitor, full curve] | –
O=C(Nc1n[nH]c(=S)s1)c1ccco1 | active: 12 µM | –
C=CCn1c(=O)[nH]c2cc(C(=O)N3CCN(c4ccc(C(C)=O)cc4)CC3)ccc2c1=O | inconclusive: 23.9 µM [inhibitor, partial curve] | –
COc1ccc(-c2csc(NS(=O)(=O)c3ccc([N+](=O)[O-])cc3)n2)cc1 | inconclusive: 33.8 µM [activator, single point] | –
O=C(O)c1ccc2c(c1)C(=O)/C(=C\c1ccco1)C2=O | inconclusive: 8.49 µM [activator, single point] | –
Brc1cccc(OCCn2ccnc2)c1 | active: 13.5 µM | –
COc1ccc(N2C(=O)CS(=O)C(c3ccccc3)C2=O)cc1 (stereo not given) | – | inactive: -19.2%

Structure (SMILES) | Potency | activity change, negative = inhibition
O=[N+]([O-])c1ccc(NC(=S)NCc2ccc(F)cc2)cc1 | inconclusive: 30.1 µM [inhibitor, single point] | –
O=[N+]([O-])c1ccc(Cc2ccccn2)cc1 | inconclusive: 33.8 µM [inhibitor, single point] | –
CC1(C)CC(=O)C(C(C2=C(O)CC(C)(C)CC2=O)c2cccs2)C(=O)C1 (stereo not given) | inconclusive: 2.13 µM [activator, partial curve] | –
COc1ccc(CCNC(=O)c2cc3c(=O)n4cccc(C)c4nc3n(Cc3ccco3)c2=N)cc1OC | – | inactive: 0.927%
CCOC(=O)N1CCC(NC(=O)CCC(=O)N2CCOc3ccc(Cl)cc32)CC1 | – | inactive: -21%
Cc1cc(C)c2oc(C(=O)Nc3ccc(S(=O)(=O)Nc4nccs4)cc3)cc(=O)c2c1 | inconclusive: 10.7 µM [activator, partial curve] | –
O=C(O)CC1S/C(=N/N=C/c2ccc(-c3ccccc3[N+](=O)[O-])o2)NC1=O (stereo not given) | inconclusive: 3.38 µM [activator, full curve] | –
NC(=O)N/N=C1\c2ccccc2-c2c(C(N)=O)cccc21 | – | inactive: -4.39%
O=C(Cc1cccc2ccccc12)Nc1cc(C(=O)O)cc(C(=O)O)c1 | inconclusive: 3.79 µM [inhibitor, partial curve, poor fit] | –
O=[N+]([O-])c1c(NCCO)cc(Sc2nc3ccccc3s2)c2nonc12 | active: 1.51 µM | –
N#C/C(C(=O)Nc1ccc(Cl)cc1)=C(/S)Nc1ccccc1 | inconclusive: 37.9 µM [inhibitor, single point] | –
NN1C(=O)/C(=C2/Sc3ccccc3N2CCCS(=O)(=O)O)SC1=S | inconclusive: 37.9 µM [inhibitor, single point] | –
O=S1(=O)CCOC(CO)CN1Cc1ccc(Cl)c(Cl)c1 (stereo not given) | inconclusive: 30.1 µM [inhibitor, single point] | –
O=C(Cc1ccc(F)cc1)N/N=C/c1ccc(-c2ccc(Cl)c(C(=O)O)c2)o1 | inconclusive: 33.8 µM [inhibitor, single point] | –
Nc1nn2cc(-c3ccccc3)nc2c2ccccc12 | inconclusive: 26.9 µM [activator, partial curve, poor fit] | –
NS(=O)(=O)c1ccc(NC(=O)Nc2cccc(Cl)c2)cc1 | inconclusive: 30.1 µM [inhibitor, partial curve] | –
O=C(Cc1ccc(F)cc1)Nc1ccc(S(=O)(=O)N2CCCC2)cc1 | inconclusive: 37.9 µM [inhibitor, single point] | –
C/C(=N\NC(=O)c1cc(O)cc(O)c1)c1ccc(NC(=O)Cc2ccccc2)cc1 | inconclusive: 7.57 µM [inhibitor, partial curve] | –
O=C(CSc1ccsc1[N+](=O)[O-])Nc1cc(F)ccc1F | inconclusive: 16.9 µM [inhibitor, partial curve] | –
O=C(COc1ccccc1[N+](=O)[O-])Nc1cccc(S(=O)(=O)NC2=NCCCCC2)c1 | inconclusive: 37.9 µM [inhibitor, single point] | –
O=[N+]([O-])c1cc2c(cc1Br)CCN2 | active: 6.01 µM | –
O=C(Cc1ccc(Br)cc1)N/N=C/c1cccnc1 | inconclusive: 21.3 µM [inhibitor, partial curve] | –
